Experimental data taken from the supplement of paper PMC12217912.
The list shows a part of the results. Sequences were assembled here from the parent chain. Inactive controls read about 0.05.

B1: TEV protease; numbered along this chain (parent)
chain: MGESLFKGPRDYNPISSSICHLTNESDGHTTSLYGIGFGPFIITNKHLFRRNNGTLVVQSLHGVFKVKDTTTLQQHLVDGRDMIIIRMPKDFPPFPQKLKFREPQREERICLVTTNFQTKSMSSMVSDTSCTFPSGDGIFWKHWIQTKDGQCGSPLVSTRDGFIVGIHSASNFTNTNNYFTSVPKNFMELLTNQEAQQWVSGWRLNADSVLWGGHKVFMVKPEEPFQPVKEATQL

Variants of: B1
Experiment: raw area under fraction-flipped curve 0-4 h after induction (AUC4h, not background-subtracted), DNA-recorder readout of cleavage of the substrate (dimensionless); higher = more cleavage of the substrate by the protease variant
Settings: temperature: 34 °C; time window: 0-4 h after rhamnose induction
Protocol: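 In vivo DNA recorder in E. coli TOP10(DE3) ΔrhaA at 34 °C. Each TEVp single-site mutant (parent TEVp 0) is paired with a single-site variant of the 7-mer TEVs (canonical ENLYFQ|S). The substrate sits between flexible linkers in a Bxb1-sfGFP-TEVs-SsrA fusion, so cleavage stabilises Bxb1 and speeds flipping of a recombination array, read by NGS. The value is the raw area under the fraction-flipped curve over 0-4 h after rhamnose induction (AUC4h), with ≥20 reads per time point. It is not background-subtracted; inactive controls average about 0.047.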
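Also: Bxb1 expression induced with 0.2% (w/v) L-rhamnose at OD600 near 0.5, cultures sampled hourly, flipped fraction per protease–substrate barcode pair counted by paired-end Illumina sequencing.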

Variant	area with substrate ENLYFAS	area with substrate ENLYFCS	area with substrate ENLYFDS	area with substrate ENLYFES	area with substrate ENLYFFS	area with substrate ENLYFGS	area with substrate ENLYFHS	area with substrate ENLYFIS	area with substrate ENLYFKS	area with substrate ENLYFLS	area with substrate ENLYFMS	area with substrate ENLYFPS	area with substrate ENLYFRS	area with substrate ENLYFTS	area with substrate ENLYFWS	area with substrate ENLYFYS	area with substrate ENLYFNS	area with substrate ENLYFSS	area with substrate ENLYFVS
N13I	0.065	0.0672	0.06	0.0608	0.0553	0.0586	0.0654	0.0564	0.0665	0.0637	0.0645	0.0568	0.0292	0.0571	0.0555	0.0499			
N13E	0.058	0.0605	0.0602	0.0569	0.0511	0.0604	0.0615	0.0548	0.0549		0.0638	0.0609		0.0357		0.0631	0.0715	0.0456	0.0598
N13P	0.0593	0.09		0.0625	0.0684		0.0629	0.0546	0.0667	0.0506	0.0686	0.0598	0.0623	0.057	0.059	0.0472	0.0693	0.0645	
N13L	0.0584	0.059	0.0679	0.067	0.0631	0.0476	0.0606	0.0603	0.0625	0.0464	0.0694	0.0621	0.0575	0.0608		0.0547	0.0798		0.0478
I15D	0.0454		0.0497	0.0503	0.0628	0.0406	0.0594	0.0449	0.0352	0.0438	0.058	0.0524	0.0601	0.0436	0.0481	0.0439	0.0373	0.044	0.0456
I15E	0.0453	0.0416	0.0576	0.0601	0.0627	0.0432	0.0492	0.0529	0.0578	0.0489	0.0607	0.056	0.0527	0.048	0.0544	0.0503	0.0599	0.0488	
I15Q	0.0524	0.058	0.0558	0.0526	0.0686		0.058	0.0518	0.0594	0.0628	0.0583	0.0568		0.0657	0.0485	0.0662	0.0552	0.0778	0.0501
I15K	0.0589	0.0521	0.0659	0.0514	0.0656	0.0591		0.0572	0.064	0.0833	0.0517	0.0463	0.0546		0.0743	0.0429	0.0569	0.0412	
K7D	0.0659	0.0658		0.073		0.0555	0.0447	0.0559	0.0613	0.062	0.0687	0.0508	0.0648	0.0588			0.0939		
G28D	0.07	0.0607	0.067	0.0578	0.0657	0.0589	0.0555	0.0518	0.0506	0.0604	0.0657	0.0564	0.0542		0.0517	0.0455	0.0587	0.0616	0.0619
S4C	0.0643	0.0629	0.0734	0.0895	0.0635		0.0694	0.0654	0.0981		0.0966	0.0687	0.0602	0.0597	0.0663	0.0607	0.0756	0.0152	
S4H	0.0589	0.0532	0.0394	0.0654	0.0557		0.0528		0.0626	0.028	0.0695	0.0435	0.071	0.0518	0.033	0.0535	0.0754	0.0468	0.0562
S17A	0.0518	0.0611		0.0673	0.0662	0.0498		0.0416		0.0597	0.0591	0.0579	0.0603	0.0569	0.0414	0.0629	0.0955	0.0702	0.0675
T23L	0.0652	0.0678	0.0531		0.0745			0.0536	0.0606		0.0677	0.0634	0.0558	0.0582		0.0692	0.0605		
T23Y	0.13	0.0654	0.0682		0.0769			0.0556			0.0644	0.0583		0.0522	0.0552	0.0546	0.0545		0.053
T23C	0.0499	0.0494		0.0481	0.0707	0.0629		0.0539	0.0745	0.0592	0.0764	0.0663	0.0632	0.0631	0.0465	0.0642	0.0636	0.0331	
E25G	0.0612	0.0452	0.0593	0.061	0.0483	0.0679	0.0339	0.066	0.069	0.0529	0.0638	0.054	0.0555	0.0649	0.0432		0.0574	0.0548	0.0435
E25R	0.0696	0.0591	0.0507	0.0702	0.0668		0.064	0.0572	0.0644	0.0623	0.0628	0.0513	0.0674	0.0456	0.0503		0.066	0.0426	0.0581
E25N	0.0548	0.0499	0.0523		0.0715		0.0352	0.033	0.0574	0.0651	0.0684	0.0567	0.0468	0.0686			0.0637	0.0504	
E25Y	0.0585	0.056	0.0633	0.0672	0.0703			0.0488	0.0679	0.059	0.0683	0.0644	0.0481	0.0536	0.0556		0.0773	0.0525	
E25W	0.055		0.0494	0.0759	0.0709	0.0537	0.0438	0.0565	0.0583	0.0565	0.0306	0.0647	0.0543	0.0602	0.0601	0.035	0.0582	0.0583	
D11V	0.0645		0.0462	0.0673	0.0746	0.0625	0.0577	0.0542	0.0705		0.062	0.0651	0.0665	0.0654	0.056			0.0533	0.0541
